# The list shows a part of the results.
# Tested on: T1, C. trachomatis L2/434/Bu expressing GFP (CTL2-GFP)
# T1 construct: L2/434/Bu GFP intracellular growth in HeLa cells
# Set-up: species or system HeLa; C. trachomatis total inclusion area by high-content imaging, normalised to DMSO
# Details: total inclusion area; 28.5 h, 10 µM; inhibitor
# In short: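 Imaging read-out: GFP inclusions and Hoechst nuclei captured by high-content imaging after fixation. Inclusion area/number = chlamydial growth; nuclei count = host cell viability. MIC calculated per earlier method.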
row,Compound,% of control remaining
1,O=C1CCCc2nccc(-c3ccc(Cl)cc3)c21 [CBK287870],66.7863
2,CN(Cc1ccncc1)C(=O)CCn1c(C(F)F)cc2cccnc21 [CBK285070],94.1634
3,CCOc1ccc(-c2cn(S(=O)(=O)c3cccc4nsnc34)nc2N)cc1 [CBK267883],76.6439
4,Cc1ccc(C2CCC(C(=O)O)C(C(=O)O)C2)cc1C (stereo not drawn) [CBK287184],89.1689
5,COc1ccc(CCN(C)Cc2ccccn2)cc1OC [CBK261912],101.953
6,CC(Cn1cncc1-c1cnn(C)c1)Oc1ccccc1Cl (stereo not drawn) [CBK281737],90.8962
7,CC1CCc2n[nH]c(C(=O)N3CCc4ncc(Cl)cc4C3)c2C1 (stereo not drawn) [CBK284874],95.7645
8,Cc1cccc(CC(=O)N2CCC(Cc3cccc(-c4cccs4)c3)(C(N)=O)CC2)c1 [CBK285752],105.501
9,CN1CCOCC(CNC(=O)c2ccc(-c3cnc(N)nc3)cc2)C1 (stereo not drawn) [CBK307119],56.2649
10,O=C(Nc1ccc(S(=O)(=O)N2CCCCCC2)cc1)c1nc2ncccn2n1 [CBK266155],121.592
11,COc1ccc(/C=C2\S/C(=N\Cc3ccccc3)N(Cc3ccccc3)C2=O)cc1C(=O)O [CBK262715],114.937
12,Cc1c(F)cccc1CN(CCCN)C(=O)Nc1ccccc1C(C)(C)C [CBK034699C],52.1823
13,O=C(c1csnn1)N1Cc2ccccc2C1 [CBK200325],99.2702
14,Cc1ccc(SCCN2CCN(C)CC2)cc1 [CBK269631C],80.3847
15,CCN(Cc1ccccc1)C(=O)NCCCN1CCN(C)CC1 [CBK155212],89.6649
16,O=C1C[C@@H]2CCN(C(=O)NC3CCCCC3)C[C@@H]2CCN1CCN1CCNC1=O [CBK288796],100.917
17,O=C(Cn1nnc2ccccc2c1=O)NC(Cc1ccccc1)c1ccccc1 (stereo not drawn) [CBK296933],89.7867
18,O=C(O)c1ccccc1-c1ccc(-c2cc(C(=O)O)c3cc(Cl)ccc3n2)o1 [CBK268699],94.1645
19,Cc1cc(NC(=O)c2ccc(C(C)(C)C)cc2)nc2c1c(=O)oc1ccccc12 [CBK291200],88.8164
20,c1ccc2nc(N3CCCC3)c(OC3CCNC3)nc2c1 (stereo not drawn) [CBK115288],78.2192

row,Compound,% of control remaining
1,CC(Oc1cccc2ccccc12)C(=S)N(C)c1ccccc1 (stereo not drawn) [CBK016158],40.18
2,Clc1ccccc1-c1nccnc1OC(c1ccccc1)c1ccccc1 [CBK107002],64.7388
3,CC(C)(C)C(=O)NCCn1nc(-c2cccs2)ccc1=O [CBK283839],54.1974
4,Cc1nc(-c2cccnc2)[nH]c(=O)c1CC(=O)N(C)CC1CCCCC1 [CBK305785],40.4469
5,CCC(c1cccc(OC)c1)N(C)C(=O)CC1CCN(c2nc(C)cc(C)n2)CC1 (stereo not drawn) [CBK286255],99.4303
6,O=C(Cn1ncc2ccccc2c1=O)NNC(=S)Nc1ccc2c(c1)OCO2 [CBK268751],95.5023
7,C=CCn1cc(CN2CCCC(O)(c3ccc(F)cc3)CC2)c(C)n1 (stereo not drawn) [CBK285144],105.465
8,Cc1nccn1CC(C)CNc1ccc(C(=O)c2ccccc2)cc1[N+](=O)[O-] (stereo not drawn) [CBK298336],90.6233
9,Cc1ccc2[nH]c(=O)c(CN(Cc3ccccc3)C(=O)NC3CCCCC3)cc2c1 [CBK068704],108.227
10,Cc1noc(C)c1C(=O)N1CCC2(CC1)CC(=O)c1ccc(OCc3ccccc3)c(C)c1O2 [CBK156506],87.0289
11,CC(C)=NOc1ncccc1C#N [CBK007841],70.1828
12,Cc1ccccc1C(NC(=O)C1CCN(C/C=C/c2ccccc2)CC1)c1ncccc1C (stereo not drawn) [CBK147980],102.647
13,Cc1ccc(N(CC(=O)Nc2ccccc2F)S(=O)(=O)c2ccc(F)cc2)cc1 [CBK263333],85.9179
14,COc1cccc(C(=O)N2CCCC(c3cc4cnccc4[nH]3)C2)c1 (stereo not drawn) [CBK285417],85.1804
15,CC(=O)N1CCN(C(=O)C2C(C(=O)O)C2(C)C)CC1 (stereo not drawn) [CBK287021],101.746
16,Cc1cccc(OCCN2C(=O)CC(Cc3cnn(C)c3)C2=O)c1 (stereo not drawn) [CBK304081],33.2728
17,CN(C)c1nc(NC2CC2)nc(Oc2ccc(=O)n(-c3ccccc3)n2)n1 [CBK270187],72.0216
18,Cc1nnc(SCC(=O)Nc2nnc(C(C)C)s2)[nH]c1=O [CBK022107],86.2274
19,C[C@H](Nc1nccnc1-c1ccsc1)c1ccccc1 [CBK088716],98.8566

# Reference: publication PMC12040169 (PLOS Biology, 2025)
